{
  "source": "PubChem BioAssay AID485294",
  "about": "(National Center for Advancing Translational Sciences (NCATS), 2010)",
  "note": "Hit rate of the full screen: of about 370,000 compounds, about 150 (0.041%) were called active. The inconclusive results got no clear call from the source; some entries with a clear call stand among them for comparison. The call rests on the fitted dose curve; in most records, active means well fitted inhibition curve with a large enough effect; inconclusive means small, poorly fitted or top-dose-only effect; inactive means flat fitted curve, though single readings scatter. No potency is given beside an inconclusive call; the fits are too rough. Potency means the concentration at half of the fitted maximal effect; tags describe the fitted curve by direction and shape.",
  "data": [
    {"molecular_target": "Beta-lactamase (Escherichia coli (strain K12)) (UniProt P00811)", "sequence (P00811 whole entry, looked up)": "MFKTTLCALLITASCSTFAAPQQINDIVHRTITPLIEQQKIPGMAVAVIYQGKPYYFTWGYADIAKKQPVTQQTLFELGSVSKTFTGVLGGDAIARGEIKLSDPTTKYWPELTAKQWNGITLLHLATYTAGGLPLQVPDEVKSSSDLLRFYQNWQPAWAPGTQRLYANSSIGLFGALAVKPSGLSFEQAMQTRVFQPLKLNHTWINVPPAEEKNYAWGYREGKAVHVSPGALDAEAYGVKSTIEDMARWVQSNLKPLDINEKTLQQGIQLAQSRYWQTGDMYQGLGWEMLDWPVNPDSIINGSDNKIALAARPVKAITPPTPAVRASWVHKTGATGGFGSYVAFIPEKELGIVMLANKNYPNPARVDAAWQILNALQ", "test": "qHTS Inhibitors of AmpC Beta-Lactamase (assay with detergent); further: nearly all actives have a fitted effect of over 25% in size;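 on activity change, negative = inhibition: 0% = no-compound wells and -100% = no-enzyme wells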", "details": "AmpC hydrolysis of nitrocefin, absorbance 480 nm, 0.01% Triton; activity change, negative = inhibition: at 114 µM (top of the series)", "method_in_brief": "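AmpC (5.3 nM in the dispensed reagent) in 20 mM phosphate pH 7.0 with 0.01% (detergent screen) or 0.0001% Triton X-100 was preincubated with compounds for 15 min at room temperature. Nitrocefin was then added from an 800 uM solution, and hydrolysis was followed at 480 nm.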", "values": [
      {"smiles": "COc1ccc(Cc2nc3ccc(C(=O)N(C)Cc4cc(C)[nH]n4)cc3o2)cc1OC", "activity change, negative = inhibition": "inactive: -2.65%"},
      {"smiles": "N#Cc1cc2nc(O)c(O)nc2cc1[N+](=O)[O-]", "Potency": "inconclusive [inhibitor, full curve, poor fit]"},
      {"smiles": "O=C(/C=C/c1cccc([N+](=O)[O-])c1)OCC1CCCO1", "note": "(stereo unspecified)", "Potency": "inconclusive [inhibitor, full curve]"},
      {"smiles": "Cc1ccc(S(=O)(=O)N(C)Cc2ccc(C(=O)N/N=C/c3ccc(OC(F)F)cc3)cc2)cc1", "Potency": "inconclusive [inhibitor, full curve]"},
      {"smiles": "CCOC(=O)CSc1nnc(-c2cccc(Cl)c2)n1CC", "Potency": "inconclusive [inhibitor, full curve, poor fit]"},
      {"smiles": "CCCC/C(C)=N/NC(=O)C(=O)NCCc1ccccc1", "Potency": "inconclusive [inhibitor, single point]"},
      {"smiles": "Cc1c(C(=O)N(CC(C)C)c2c(N)n(Cc3ccccc3)c(=O)[nH]c2=O)sc2nc3n(c(=O)c12)CCC3", "Potency": "inconclusive [inhibitor, partial curve, poor fit]"},
      {"smiles": "CC(C)CC(=O)Nc1nnc(SCC(=O)NCc2ccc3c(c2)OCO3)s1", "Potency": "inconclusive [inhibitor, full curve, poor fit]"},
      {"smiles": "CN1C(=O)c2ccccc2C(C(=O)O)C1c1cccc(Cl)c1", "note": "(stereo unspecified)", "Potency": "inconclusive [inhibitor, full curve, poor fit]"},
      {"smiles": "Cc1nn(C(C)(C)C)c(OC(=O)c2cccs2)c1Sc1ccccc1", "Potency": "inconclusive [inhibitor, single point]"},
      {"smiles": "Cc1cc(C)cc(NC(=O)Nc2cc(S(=O)(=O)N(C)C)ccc2C)c1", "Potency": "inconclusive [inhibitor, single point]"},
      {"smiles": "CN(C)C(=O)c1nnc(Cc2ccc(Cl)cc2)o1", "Potency": "inconclusive [inhibitor, full curve, poor fit]"},
      {"smiles": "CCOc1ccc(-c2nnn(CC(=O)NCc3ccc(F)cc3)n2)cc1OCC", "Potency": "inconclusive [inhibitor, full curve, poor fit]"},
      {"smiles": "COCCNC(=O)CSCc1nc(-c2ccc(SC)cc2)oc1C", "Potency": "inconclusive [inhibitor, full curve, poor fit]"},
      {"smiles": "O=S(=O)(NCc1cc(-c2ccccc2)no1)c1ccccc1", "Potency": "inconclusive [inhibitor, full curve, poor fit]"},
      {"smiles": "CCCCOc1ccc(CNC(=O)NS(=O)(=O)c2ccc(OCC)cc2)cc1", "Potency": "inconclusive [inhibitor, partial curve, poor fit]"},
      {"smiles": "COc1cccc2cc(C(=O)N3CCN(c4ccc(C)cc4C)CC3)c(=O)oc12", "Potency": "inconclusive [inhibitor, single point]"},
      {"smiles": "COc1ccccc1-c1cc2nc(C)c(CCC(=O)NCc3ccco3)c(C)n2n1", "Potency": "inconclusive [inhibitor, full curve]"},
      {"smiles": "NC(=O)c1cc(Cc2ccccc2)sc1NC(=O)c1ccco1", "Potency": "inconclusive [inhibitor, full curve, poor fit]"},
      {"smiles": "COc1ccc(-c2cc3ccccc3s2)cc1[C@H]1[C@H]2C=CC[C@@H](C)[C@@H]2C(=O)N1Cc1ccccc1", "activity change, negative = inhibition": "inactive: -2.58%"},
      {"smiles": "CCOC(=O)[C@H](O)[C@@H](O)c1cccc([C@H](O)[C@@H](O)C(=O)OCC)c1", "Potency": "inconclusive [inhibitor, full curve, poor fit]"},
      {"smiles": "CCN(CCO)c1ncnc2c1sc1nc(C(C)C)c3c(c12)CC(C)(C)OC3", "activity change, negative = inhibition": "inactive: -9.02%"},
      {"smiles": "CCN(CC)CCCNC(=O)c1cn(CC)c2ccc(S(=O)(=O)N3CCC(C)CC3)cc2c1=O", "activity change, negative = inhibition": "inactive: 1.44%"},
      {"smiles": "COc1ccc(Nc2nc3c(S(=O)(=O)c4ccccc4)nnn3c3ccc(Cl)cc23)cc1", "Potency": "inconclusive [inhibitor, single point]"},
      {"smiles": "COc1ccc(Br)c(C(=O)OCC(=O)NC2CC2)c1", "Potency": "inconclusive [inhibitor, full curve, poor fit]"},
      {"smiles": "COc1cc(C2NC(=O)NC(C)=C2C(=O)OCc2ccc(C)cc2)cc(OC)c1O", "note": "(stereo unspecified)", "Potency": "inconclusive [inhibitor, partial curve]"},
      {"smiles": "COc1ccccc1C(=O)N(Cc1ccc(Cl)cc1)C1CCS(=O)(=O)C1", "note": "(stereo unspecified)", "activity change, negative = inhibition": "inactive: 5.6%"},
      {"smiles": "O=C(NCCc1ccc(F)cc1)c1cccs1", "Potency": "inconclusive [inhibitor, partial curve]"},
      {"smiles": "COc1cc([N+](=O)[O-])ccc1NC(=S)Nc1cc(C(=O)OC(C)C)cc(C(=O)OC(C)C)c1", "Potency": "inconclusive [inhibitor, full curve]"},
      {"smiles": "CCCc1cc(=O)[nH]c(SCC(=O)Nc2ccc(OC(F)F)cc2)n1", "Potency": "inconclusive [inhibitor, full curve, poor fit]"},
      {"smiles": "Cc1ccc(C2(C)NC(=O)N(CC(=O)c3ccc(Cl)s3)C2=O)cc1", "note": "(stereo unspecified)", "activity change, negative = inhibition": "inactive: -9.17%"},
      {"smiles": "COc1ccc(NC(=O)c2ccco2)cc1NC(=O)c1cc2ccccc2o1", "Potency": "inconclusive [inhibitor, full curve]"},
      {"smiles": "CC(OC(=O)c1ccco1)C(=O)NC1CCCC1", "note": "(stereo unspecified)", "Potency": "inconclusive [inhibitor, full curve, poor fit]"},
      {"smiles": "O=C(Nc1cnn(Cc2ccc(Cl)cc2Cl)c1)c1noc2c1CCCC2", "Potency": "inconclusive [inhibitor, full curve, poor fit]"},
      {"smiles": "O=C(CCOc1ccccc1)Nc1cccc([N+](=O)[O-])c1", "activity change, negative = inhibition": "inactive: 4.74%"},
      {"smiles": "O=C(Cc1ccccc1)NC1CCS(=O)(=O)C1", "note": "(stereo unspecified)", "Potency": "inconclusive [inhibitor, full curve, poor fit]"},
      {"smiles": "O=C(CSc1nn(-c2ccc(F)cc2)c(=S)s1)NC(=O)NCc1ccco1", "Potency": "inconclusive [inhibitor, full curve, poor fit]"},
      {"smiles": "CNC(=O)COC(=O)c1ccccc1C(=O)c1ccc(Cl)c([N+](=O)[O-])c1", "Potency": "inconclusive [inhibitor, full curve, poor fit]"},
      {"smiles": "Cc1cc(C(=O)O)c(=O)[nH]c1C", "Potency": "inconclusive [inhibitor, full curve]"},
      {"smiles": "O=S(=O)(N/N=C\\c1ccccc1O)c1ccc(Cl)cc1", "activity change, negative = inhibition": "inactive: -0.303%"},
      {"smiles": "COc1cccc(CNC(=O)c2nnn(CC(=O)Nc3ccc4c(c3)OCO4)c2N)c1", "activity change, negative = inhibition": "inactive: 1.24%"},
      {"smiles": "Cc1ccc(NC(=O)CSc2ncc(-c3ccccc3)n2C(=O)c2ccccc2)cc1", "activity change, negative = inhibition": "inactive: 5.78%"},
      {"smiles": "O=C(COc1ccc(F)cc1)N1CCCCCCC1", "activity change, negative = inhibition": "inactive: -3.57%"},
      {"smiles": "Cc1ccc(S(=O)(=O)N2CCNC(=O)C2)c(C)c1", "Potency": "inconclusive [inhibitor, full curve, poor fit]"},
      {"smiles": "COC(=O)c1ccc(CSc2nc(N)cc(N)n2)cc1", "Potency": "inconclusive [inhibitor, full curve, poor fit]"},
      {"smiles": "Cc1ccc(/C=C/C(=O)c2ccccc(=O)c2O)cc1C", "Potency": "inconclusive [inhibitor, partial curve, poor fit]"},
      {"smiles": "COc1cccc(C=Nc2cccc3c(=O)[nH][nH]c(=O)c23)c1O", "Potency": "inconclusive [inhibitor, single point]"},
      {"smiles": "CCN(CC(=O)Nc1c(F)cccc1F)C(=O)c1ccc(N2CCCC2=O)cc1", "Potency": "inconclusive [inhibitor, full curve, poor fit]"},
      {"smiles": "Cc1cccc(NC(=O)c2cccc(S(=O)(=O)N3CCc4ccccc4C3)c2)n1", "Potency": "inconclusive [inhibitor, single point]"},
      {"smiles": "CCOC(=O)Cc1csc(NC(=O)c2csc(C)c2)n1", "activity change, negative = inhibition": "inactive: 1.68%"},
      {"smiles": "Cc1c(Cl)cccc1NC(=O)Nc1c[nH]c(=O)[nH]c1=O", "activity change, negative = inhibition": "inactive: 3.05%"},
      {"smiles": "CCCN=C1NC(=O)C(CC(=O)NCCc2ccccc2)S1", "note": "(stereo unspecified)", "Potency": "inconclusive [inhibitor, single point]"},
      {"smiles": "O=C1NC(=Nc2ccccc2Cl)S/C1=C\\c1cc([N+](=O)[O-])ccc1O", "Potency": "inconclusive [inhibitor, full curve, poor fit]"},
      {"smiles": "Oc1ccc(N=Nc2n[nH]c(-c3ccc(Cl)cc3)n2)cc1", "Potency": "inconclusive [inhibitor, single point]"},
      {"smiles": "CCCCCC(=O)NC(=S)NNC(=O)c1ccc([N+](=O)[O-])cc1", "Potency": "inconclusive [inhibitor, partial curve]"},
      {"smiles": "Cc1ccc(-c2[nH]nc3c2C(c2ccsc2)C(C#N)=C(N)O3)cc1", "note": "(stereo unspecified)", "Potency": "inconclusive [inhibitor, full curve, poor fit]"},
      {"smiles": "COc1cc(/C=C(/C#N)c2nc(-c3cc4ccccc4oc3=O)cs2)ccc1O", "activity change, negative = inhibition": "inactive: 13.6%"},
      {"smiles": "ON=C1c2ccccc2-c2ccccc21", "activity change, negative = inhibition": "inactive: -17.4%"},
      {"smiles": "Cc1ccc(S(=O)(=O)NCCC(=O)NNC(=O)c2ccccc2Cl)cc1C", "Potency": "inconclusive [inhibitor, partial curve, poor fit]"},
      {"smiles": "Nc1nc(-c2ccc(F)cc2)cc(C(F)(F)F)n1", "activity change, negative = inhibition": "inactive: -9.46%"},
      {"smiles": "CCOc1ccc2nc(NS(=O)(=O)c3cccs3)sc2c1", "Potency": "inconclusive [inhibitor, full curve, poor fit]"},
      {"smiles": "COc1cccc(N2CCN(C(=O)c3cccn3-c3nnc(N4CCCCC4)s3)CC2)c1", "activity change, negative = inhibition": "inactive: 1.2%"},
      {"smiles": "CCc1ccccc1N1C(=O)C(Cl)=C(N2CCOCC2)C1=O", "Potency": "inconclusive [inhibitor, full curve, poor fit]"},
      {"smiles": "S=C(NCc1ccccc1)Nc1nccs1", "Potency": "inconclusive [inhibitor, full curve, poor fit]"},
      {"smiles": "COC(=O)[C@H]1[C@H]2C[C@@H]3c4[nH]c5cc(OC)ccc5c4CCN3C[C@H]2C[C@@H](OC(=O)c2ccc(N)cc2)[C@@H]1OC", "Potency": "inconclusive [inhibitor, single point]"},
      {"smiles": "O=Cc1cn(Cc2ccc([N+](=O)[O-])cc2)c2ccccc12", "activity change, negative = inhibition": "inactive: 3.25%"}
    ]}
  ]
}
